The source gives no read counts; variants with many changes may rest on few reads.
B1: LINE1-mini (parent)
chain: GGCAGAGCUCAACACAGCGUGGCAAAGUGGCUGUGGCUAGACUGCC

Variants of: B1
Experiment: self-cleavage, relative activity (ratio to wild type); higher = more cleavage; in vitro, sequencing; the parent is a self-cleaving ribozyme
For A6C A25C U28A G33U C46A, the self-cleavage was 0.02.
Variant C10A C18G U32C has a self-cleavage of 0.01.
A4C A16U U38G showed a self-cleavage of 0.01.
Work on G7A A11U A12G yielded a self-cleavage of 0.
Variant C3G U20G G22U G36A G40A C42U C45A has a self-cleavage of 0.03.
In the case of A16U G29U U43A, the self-cleavage is reported as 0.07.
A6U C15U U32C gave a self-cleavage of 0.11.
G17A A24G A39G gave a self-cleavage of 0.01.
For A14U G19C C23A U28C C31U, the self-cleavage was 0.05.
Work on G5U G21U C31U yielded a self-cleavage of 0.04.
In the case of A16U C31A C46A, the self-cleavage is reported as 0.01.
In the case of G7A G21U U32A U38A G44C, the self-cleavage is reported as 0.05.
In the case of G19C U20G U34A C37G, the self-cleavage is reported as 0.04.
With A12U C23A G30A G35C G40C the self-cleavage was 0.02.
In the case of U9C G21A C23G, the self-cleavage is reported as 0.03.
With G2U C8A G40A the self-cleavage was 0.11.
Work on C3A A16U C45U yielded a self-cleavage of 0.07.
C8U C18G U28A showed a self-cleavage of 0.13.
With A6C A25G G44A C45U the self-cleavage was 0.03.
For G5U A14U A41U C42A, the self-cleavage was 0.04.
In the case of G5U A12U G44C C45U, the self-cleavage is reported as 0.09.
With G27U G35C U38G the self-cleavage was 0.06.
C13U U28A G35A A39G showed a self-cleavage of 0.16.
G17A C18U G29U U43C showed a self-cleavage of 0.01.
G2U C13G C15A C18U showed a self-cleavage of 0.02.
With U32G C42G C45U the self-cleavage was 0.03.
G5C G21A G29A G36C G44A gave a self-cleavage of 0.03.
For G7C U9A U20C G29C U32C C37G, the self-cleavage was 0.01.
A6C G7A C13A C18A U32A gave a self-cleavage of 0.04.
For C10G G22C C42A G44A C45U, the self-cleavage was 0.
In the case of G5A U9G U20A, the self-cleavage is reported as 0.29.
C8A A24C G35C showed a self-cleavage of 0.13.
Work on G5U G40U A41G yielded a self-cleavage of 0.09.
G5A C10U A14C A26C U34C gave a self-cleavage of 0.03.
For C8G G17A U20G, the self-cleavage was 0.04.
G22U G33C C46G gave a self-cleavage of 0.02.
C18U G29A A39C A41C gave a self-cleavage of 0.05.
With A14C U34A U38C G44U the self-cleavage was 0.01.
Work on A16C U20A C46A yielded a self-cleavage of 0.07.
With C3U G5A A14G G17C G19A the self-cleavage was 0.07.
G1U G21U G29U showed a self-cleavage of 0.31.
With G1U C10U C18U G33U G36C the self-cleavage was 0.01.
Variant G2A C13A C15G U20G has a self-cleavage of 0.08.
G2C G7U C13U U20A A26G showed a self-cleavage of 0.08.
A16C G21C U28A C45U gave a self-cleavage of 0.17.
For C3U A14U C15A G29U, the self-cleavage was 0.23.
With A12U G27A U34A the self-cleavage was 0.05.
With C15U G17U A25G the self-cleavage was 0.04.
U9G C13U G17A G21U A26U G29A U32G U38G A39G showed a self-cleavage of 0.
A11U A39G C42U gave a self-cleavage of 0.04.
With A6G U34C A41U the self-cleavage was 0.25.
C8A G35C C42G gave a self-cleavage of 0.26.
In the case of C10U C13A C31U G40C, the self-cleavage is reported as 0.06.
For G2U A6G G21A G22U, the self-cleavage was 0.04.
Work on G2A G7U C23G yielded a self-cleavage of 0.13.
With G2C A6G G7C U32G A41G the self-cleavage was 0.07.
In the case of A16U A24U C42A C45A, the self-cleavage is reported as 0.01.
G2C U9C C23A G27A A41C gave a self-cleavage of 0.03.
C3U G7U U9A A16U A26C showed a self-cleavage of 0.04.
G27A G30U G40A showed a self-cleavage of 0.01.
In the case of A14G G21U A24U, the self-cleavage is reported as 0.26.
In the case of C13G C23U G36C, the self-cleavage is reported as 0.04.
A26G G27A U32C C46A showed a self-cleavage of 0.04.
For G19C C37U U43C, the self-cleavage was 0.04.
Variant C8A C15A G17U G21C U38A G40A has a self-cleavage of 0.06.
G2C A24C U28A C42A showed a self-cleavage of 0.02.
Variant C13G G30C U32G G44U has a self-cleavage of 0.13.
G2A A14C G29A U32C G40A gave a self-cleavage of 0.19.
A25C G29U C42U showed a self-cleavage of 0.12.
For G1A G7A G35U G40U U43G, the self-cleavage was 0.5.
In the case of G7C G19A G27U, the self-cleavage is reported as 0.12.
In the case of A24G A25G G33A U43A, the self-cleavage is reported as 0.02.
For C8U A12U A16U G44U, the self-cleavage was 0.05.
Work on C13A A26U C45U yielded a self-cleavage of 0.06.
With C3A A14U G21C the self-cleavage was 1.32.
Work on G5U A16U G21U G35A yielded a self-cleavage of 0.01.
Variant G21C G27A G40U has a self-cleavage of 0.38.
In the case of G21A G22U C37G A39G, the self-cleavage is reported as 0.
Work on A6U G7C G33U yielded a self-cleavage of 0.48.
Variant G5A C15U G19U C23U C37G has a self-cleavage of 0.02.
With A12U C13G C18U the self-cleavage was 0.08.
Work on G5A C8G A12G yielded a self-cleavage of 0.07.
G7U C10A G27U G36A gave a self-cleavage of 0.01.
For G19C G29U C45A C46U, the self-cleavage was 0.38.
Work on G5C C10A A24U C45G yielded a self-cleavage of 0.03.
With A14G G29U C37U A39U the self-cleavage was 0.03.
Variant C10A G19U G36U C37A has a self-cleavage of 0.
In the case of G2C U9A A14G G33C C45G, the self-cleavage is reported as 0.02.
A14C C18U U32C gave a self-cleavage of 0.03.
With C8G G17A C31G G40A C46U the self-cleavage was 0.01.
With A11C A12G C15A C31A the self-cleavage was 0.
With U9A A14G A26C the self-cleavage was 0.02.
In the case of C15A G19A U34G G36C, the self-cleavage is reported as 0.01.
In the case of A12C C15U G33U G40A, the self-cleavage is reported as 0.06.
With C23G U34C U38A the self-cleavage was 0.44.
C10U C15A G40U U43G showed a self-cleavage of 0.03.
C3G A14G A26G C37G showed a self-cleavage of 0.84.
For A24U G30U U38C G44U, the self-cleavage was 0.03.
With C3A U38C C42U the self-cleavage was 0.38.
Variant U9G G19U G40U C46A has a self-cleavage of 0.06.
C8U A12G C23G showed a self-cleavage of 0.02.
Work on C10G G21U G33U A39C A41C yielded a self-cleavage of 0.01.
For A12U G33C U43C C45A, the self-cleavage was 0.01.
Variant C8A C15G G40U has a self-cleavage of 0.95.
For C8A C13U C18A, the self-cleavage was 0.17.
In the case of C15A U20A G22C G29C C31G A41U C42A, the self-cleavage is reported as 0.01.
C23A U34G G36U showed a self-cleavage of 0.08.
C8A C18G G35U G44U showed a self-cleavage of 0.14.
In the case of C8G C15A G30C G35A, the self-cleavage is reported as 0.34.
In the case of G5U A24C A39G, the self-cleavage is reported as 0.11.
With C8U C10U C15A A25U A26U the self-cleavage was 0.02.
Variant A4U A12G G17U has a self-cleavage of 0.08.
For G19A C31G A39U, the self-cleavage was 0.08.
G1C G19C C31U C46G gave a self-cleavage of 0.23.
With G5C U20A A26C G35A the self-cleavage was 0.1.
Variant G1A C3G U20G A24C A39C G44U has a self-cleavage of 0.12.
Variant G1A G7A A26G has a self-cleavage of 0.34.
With U20A A24C A25U G40U the self-cleavage was 0.04.
In the case of C10A C18A A24C U38C, the self-cleavage is reported as 0.04.
Variant C10A G19A G29U has a self-cleavage of 0.07.
Work on C3A A6G U34A U38A A39C yielded a self-cleavage of 0.04.
With G2A G17A G30A G44C the self-cleavage was 0.22.
Variant G1U A6U C8U C23G G27C has a self-cleavage of 0.01.
G7A G27A U34C C45G showed a self-cleavage of 0.05.
With A4U G7A A24U G30A G33C the self-cleavage was 0.14.
For G2U G7C G36A, the self-cleavage was 0.26.
Work on A14U A16U U20C C46A yielded a self-cleavage of 0.15.
For G5C G27U G44U, the self-cleavage was 0.05.
For C10U A26U C31G G35U, the self-cleavage was 0.02.
C15A A16C G44U showed a self-cleavage of 0.14.
Variant C3U G17C C31U G36U has a self-cleavage of 0.07.
Variant C10A A24U U28G G29U has a self-cleavage of 0.01.
G22A C23U A39C gave a self-cleavage of 0.04.
Variant A6U A11G A14U A41C has a self-cleavage of 0.01.
Work on C3U U28G G36U yielded a self-cleavage of 0.08.
In the case of G5C G21C G22U, the self-cleavage is reported as 0.02.
For G17A G29U G30U, the self-cleavage was 0.23.
For G7C A16G A41G, the self-cleavage was 0.01.
Work on G1A U20A A26C U28G yielded a self-cleavage of 0.12.
In the case of G22A U28C C31G G33C A39G C42A, the self-cleavage is reported as 0.08.
For G5U A25C U32G G35A, the self-cleavage was 0.01.
A14U C18U U20A G22C A25U G33C C45U gave a self-cleavage of 0.03.
Variant A4C G5C U28G G40C has a self-cleavage of 0.07.
With C8G C15G U34A the self-cleavage was 0.04.
Variant C15U U20A U28C G33A A39U has a self-cleavage of 2.81.
A6U A11C C18G G21A U43C C45U C46G showed a self-cleavage of 0.02.
With A6G G29A A39C C46A the self-cleavage was 0.02.
In the case of C8U A16C G22A G40A, the self-cleavage is reported as 0.06.
Work on A16C A39G A41G yielded a self-cleavage of 0.
Variant G5C A6C U9G C10U G35U U43C has a self-cleavage of 0.02.
C15U U34G C46U showed a self-cleavage of 0.01.
Work on G17U G27A C46U yielded a self-cleavage of 0.09.
For C15U C18G G36C, the self-cleavage was 0.01.
A4G C42G C45G showed a self-cleavage of 0.02.
With U28G G30C G36A C45U the self-cleavage was 0.04.
With C10U G29C G30C C37G the self-cleavage was 0.02.
G1A G21U U32A showed a self-cleavage of 0.03.
Variant G5A C13U G17U G21A G44C has a self-cleavage of 0.05.
Work on C8A C18U C45G yielded a self-cleavage of 0.19.
Work on G1C A4U C10U C42G yielded a self-cleavage of 0.01.
With G21C U28C G35U the self-cleavage was 0.02.
C8A C10A U38A showed a self-cleavage of 0.03.
A4C A12U G27A G33A C45G C46G showed a self-cleavage of 0.01.
For A12G C15A A26G C42A, the self-cleavage was 0.01.
For G7U A14G G36U A39G, the self-cleavage was 0.01.
Work on G7A G21C A24G G35C G40A U43G yielded a self-cleavage of 0.07.
In the case of G22U C23A G30A C46A, the self-cleavage is reported as 1.82.
